Measured values taken from US20140294758A1 (published 2014).

What was measured:
[1] = target: T1, intermediate affinity IL2 receptor on TF-1β cells (UniProt P14784 27-551; P31785 23-369); experiment: cell-based or functional assay
T1 sequence (looked up) 1: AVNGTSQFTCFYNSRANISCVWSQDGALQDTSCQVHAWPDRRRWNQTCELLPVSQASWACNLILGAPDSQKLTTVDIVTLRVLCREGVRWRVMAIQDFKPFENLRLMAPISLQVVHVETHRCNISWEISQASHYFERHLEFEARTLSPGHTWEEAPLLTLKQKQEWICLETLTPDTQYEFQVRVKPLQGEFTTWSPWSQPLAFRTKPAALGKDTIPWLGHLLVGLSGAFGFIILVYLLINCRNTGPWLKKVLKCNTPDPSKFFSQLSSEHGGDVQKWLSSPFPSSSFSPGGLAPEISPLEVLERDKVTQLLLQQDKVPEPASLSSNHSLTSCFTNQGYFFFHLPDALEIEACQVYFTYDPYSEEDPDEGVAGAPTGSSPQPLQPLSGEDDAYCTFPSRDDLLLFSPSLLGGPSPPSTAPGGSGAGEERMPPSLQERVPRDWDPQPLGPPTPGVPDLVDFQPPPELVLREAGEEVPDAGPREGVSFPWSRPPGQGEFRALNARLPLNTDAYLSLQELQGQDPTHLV
T1 sequence (looked up) 2: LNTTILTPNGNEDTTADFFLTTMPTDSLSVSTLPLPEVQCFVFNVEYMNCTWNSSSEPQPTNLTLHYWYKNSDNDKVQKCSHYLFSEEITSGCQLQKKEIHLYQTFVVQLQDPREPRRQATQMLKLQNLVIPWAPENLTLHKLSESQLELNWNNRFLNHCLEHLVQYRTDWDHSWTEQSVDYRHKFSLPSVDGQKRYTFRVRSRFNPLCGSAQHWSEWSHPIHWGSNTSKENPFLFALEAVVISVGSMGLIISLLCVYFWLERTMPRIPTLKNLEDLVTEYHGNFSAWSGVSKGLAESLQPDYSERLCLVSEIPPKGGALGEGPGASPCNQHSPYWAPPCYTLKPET

[2] = target: T2, high affinity IL2 receptor on CTLL-2 mouse T cells (mouse, UniProt P01590 22-268; P16297 27-539; P34902 23-369); experiment: cell-based or functional assay
T2 sequence (looked up) 1: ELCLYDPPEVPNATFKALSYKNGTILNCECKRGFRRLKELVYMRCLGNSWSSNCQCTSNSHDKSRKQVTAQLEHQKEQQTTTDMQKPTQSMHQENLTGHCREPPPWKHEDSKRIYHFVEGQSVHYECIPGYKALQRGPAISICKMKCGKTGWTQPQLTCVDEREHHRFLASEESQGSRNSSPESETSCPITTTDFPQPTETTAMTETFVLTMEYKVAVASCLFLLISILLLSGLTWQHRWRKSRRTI
T2 sequence (looked up) 2: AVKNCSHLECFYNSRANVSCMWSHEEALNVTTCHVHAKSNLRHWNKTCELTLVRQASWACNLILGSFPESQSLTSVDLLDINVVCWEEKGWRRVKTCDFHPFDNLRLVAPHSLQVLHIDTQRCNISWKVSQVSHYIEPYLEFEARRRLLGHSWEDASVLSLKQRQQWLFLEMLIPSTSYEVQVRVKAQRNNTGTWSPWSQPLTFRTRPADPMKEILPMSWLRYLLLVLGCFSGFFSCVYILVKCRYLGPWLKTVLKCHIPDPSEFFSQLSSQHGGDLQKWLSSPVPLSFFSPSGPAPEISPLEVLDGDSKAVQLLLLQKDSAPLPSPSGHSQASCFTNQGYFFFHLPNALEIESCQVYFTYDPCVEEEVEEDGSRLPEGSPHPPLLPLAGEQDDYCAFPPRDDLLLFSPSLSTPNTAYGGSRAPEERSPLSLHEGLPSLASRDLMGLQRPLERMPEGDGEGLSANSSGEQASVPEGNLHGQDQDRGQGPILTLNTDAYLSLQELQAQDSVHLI
T2 sequence (looked up) 3: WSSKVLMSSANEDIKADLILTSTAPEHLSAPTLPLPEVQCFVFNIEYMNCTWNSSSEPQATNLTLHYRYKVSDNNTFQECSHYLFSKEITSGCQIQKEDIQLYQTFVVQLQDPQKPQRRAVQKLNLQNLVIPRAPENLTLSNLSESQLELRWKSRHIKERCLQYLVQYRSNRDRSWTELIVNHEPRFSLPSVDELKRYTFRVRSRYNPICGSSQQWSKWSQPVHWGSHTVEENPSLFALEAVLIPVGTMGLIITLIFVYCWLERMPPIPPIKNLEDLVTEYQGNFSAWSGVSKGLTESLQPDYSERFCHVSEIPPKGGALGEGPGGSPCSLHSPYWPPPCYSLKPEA

B1: 14.18-IL2-L containing SEQ ID NO: 3 (other)
light: EIVMTQSPATLSVSPGERATLSCRSSQSLVHRNGNTYLHWYLQKPGQSPKLLIHKVSNRFSGVPDRFSGSGSGTDFTLKISRVEAEDLGVYFCSQSTHVPPLTFGAGTKLELKRTVAAPSVFIFPPSDEQLKSGTASVVCLLNNFYPREAKVQWKVDNALQSGNSQESVTEQDSKDSTYSLSSTLTLSKADYEKHKVYACEVTHQGLSSPVTKSFNRGECQRVD[about 150 residues not listed]
VH: EVQLLQSGPELEKPGASVMISCKASGSSFTGYNMNWVRQNIGKSLEWIGAIDPYYGGTSYNQKFKGRATLTVDKSSSTAYMHLKSLTSEDSAVYYCVSGMEYWGQGTSVTVSS
Relative Activity High aff/Inter Aff (intermediate affinity part) [1]: 0.8 | TF-1β (Int aff) ED50 [1]: 10 ng/mL | Relative Activity High aff/Inter Aff (high affinity part) [2]: 1 | Selectivity for High Affinity Receptor [2]: 1.25
